# Among all 120,000 compounds or so, about 5,300 (4.4%) were called active. This list was built around the results that the source calls inconclusive (neither active nor inactive); the mix of calls is not that of the screen. Calls come from the whole dose curve; as a rule, active = well fitted inhibition curve with a large enough effect; inconclusive = small, poorly fitted or top-dose-only effect; inactive = no such curve, though single readings can be large or run the other way. Where the call is inconclusive, the potency comes from a doubtful curve fit.
# Test: qHTS Primary assay for Inhibitors of Plasmodium falciparum Dd2 growth in vitro; note: nearly all actives have a fitted effect of over 65% in size
# Settings: P. falciparum Dd2 growth, SYBR Green, 72 h; series mostly up to 28.9 µM
# In short: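 Infected erythrocytes (Dd2, 0.3% parasitemia, 2.5% hematocrit final) are added to compound in RPMI-1640/Albumax II medium, grown 72 h at 37C in low oxygen, then lysed with saponin/Triton-X containing SYBR Green and read by fluorescence.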
# Potency is the fitted concentration of half-maximal effect; tags give direction and shape of the fitted curve.
SMILES,Potency,outcome
COc1cccc(-c2ccccc2NC(=O)C2CCN(Cc3ccc(F)cc3)CC2)c1,active: 7.94 µM,–
COc1ccccc1Cn1c(-c2ccccc2)nc(C)c(CCO)c1=O,"inconclusive: 17.8 µM [inhibitor, single point]",–
Cc1ccc(C(=O)N2CCNC(=O)C2Cc2ccccc2)c(F)c1 (stereo not drawn),inactive,–
O=C(NCC1CN(Cc2cccnc2)CC12CN(c1ccccc1)C2)C1CC1 (stereo not drawn),inactive,–
COC1CCOC2(CCN(C(=O)c3cc(-c4ccc(F)cc4)n[nH]3)CC2)C1 (stereo not drawn),"inconclusive: 10 µM [inhibitor, single point]",–
CC(C)NC(=O)N1CC(C(=O)NCc2ccc3c(c2)OCO3)CC(c2ccccc2)C1 (stereo not drawn),inactive,–
COc1ccc(S(=O)(=O)N2CCC(n3cnnc3-c3ccccc3)CC2)cc1Cl,"inconclusive: 12.6 µM [inhibitor, partial curve, poor fit]",–
COc1ccc(C2Cn3nnc(C(=O)N4CCN(C(=O)c5ccccc5)CC4)c3CO2)cc1 (stereo not drawn),"inconclusive: 10 µM [inhibitor, single point]",–
O=C(CN1CC2CC(C1)[C@H]1CCCC(=O)N1C2)NCc1ccc(F)cc1F (stereo partly drawn),inactive,–
Cc1nc(-c2ccccc2)sc1-c1ccc(SCC(=O)NCc2ccccc2Cl)nn1,"inconclusive: 10 µM [inhibitor, single point]",–
CCCN1CCCC12Cc1ccccc1CN(C(=O)c1c(C)noc1C)C2 (stereo not drawn),"inconclusive: 10 µM [inhibitor, single point]",–
COCCNC(=O)N1CCc2nc(N3CCN(C)CC3)[nH]c(=O)c2CC1,–,inactive [at 5.79 µM]
COCc1ccc(C(=O)N2CCN(C(C)=O)CC(O)C2)s1 (stereo not drawn),inactive,–
Cc1ccccc1N1Cc2c(NC3CC3)ncnc2N(C)CC1=O,"inconclusive: 10 µM [inhibitor, partial curve]",–
Cc1cc(=O)n(Cc2ccc(Cl)cc2)c2c1c(C)nn2-c1ccccc1,"inconclusive: 17.8 µM [inhibitor, single point]",–
COc1ccc(OC)c(C2=NS(=O)(=O)N(C)C(C(=O)Nc3ccc(F)cc3F)=C2)c1,"inconclusive: 17.8 µM [inhibitor, single point]",–
N#Cc1nc(-c2ccc(COc3ccc(Cl)cc3)o2)oc1N1CCC(C(N)=O)CC1,"inconclusive: 11.2 µM [inhibitor, single point]",–
CCN(CC)C(CNc1ncncn1)c1ccco1 (stereo not drawn),inactive,–
COc1ccc(-c2ccnc(N[C@H]3CO[C@H]4[C@@H]3OC[C@@H]4NC(=O)CCCC(=O)O)n2)cc1,"inconclusive: 17.8 µM [inhibitor, single point]",–
CC(C)CCN1CCc2c(n(CCOc3ccccc3)n(-c3ccccc3)c2=O)C1,"inconclusive: 10 µM [inhibitor, partial curve, poor fit]",–
CC(C)CCNC(=O)c1ccc2c(c1)N(S(=O)(=O)c1ccccc1)CC2,"inconclusive: 8.91 µM [inhibitor, single point]",–
C[C@@H](NC(=O)c1ccc2c(c1)OCO2)c1onc(-c2ccc(F)cc2)c1C(=O)O,inactive,–

SMILES,Potency,outcome
CCNC(=O)NC[C@H]1C[C@@H]2CCN1C[C@@H]2c1cc(-c2ccc3ccccc3c2)nn1C,"inconclusive: 6.31 µM [inhibitor, partial curve, poor fit]",–
CCOc1ccc(-c2cc3nc(C4CCN(C(=O)OC(C)(C)C)CC4)c(C(=O)Nc4cc(OC)ccc4OC)cn3n2)cc1,active: 3.98 µM,–
CC(=O)Nc1ccc(C(=O)N2Cc3ccccc3OC3(CCN(C(C)=O)CC3)C2)cc1,"inconclusive: 10 µM [inhibitor, single point]",–
CCC(=O)N1CCC(C(NC(=O)c2ccccc2)C(=O)NCc2ccccc2)CC1 (stereo not drawn),inactive,–
O=C(NCC1Cn2cccc2C(=O)N1Cc1ccccc1)c1ccc2ccccc2n1 (stereo not drawn),"inconclusive: 17.8 µM [inhibitor, single point]",–
O=C(CN1C(=O)CC(c2ccccc2)=Nc2ccccc21)Nc1ccc(Br)cc1,active: 10 µM,–
CCOc1ccccc1NC(=O)N1CCCC(c2nc(-c3cnccn3)no2)CCNC(=O)CC1 (stereo not drawn),inactive,–
CNC(=O)c1ccc2c(c1)N(Cc1cc(C)ccc1C)C(=O)c1ccccc1S2,"inconclusive: 17.8 µM [inhibitor, single point]",–
CCOC(=O)c1nc(Nc2ccc(C(=O)OC(C)C)cc2)c2ccccc2n1,active: 3.16 µM,–
N[C@@H]1CCN(C(=O)c2ccccc2OC(F)(F)C(F)F)C[C@H]1O,"inconclusive: 14.1 µM [inhibitor, partial curve, poor fit]",–
Cc1noc(C)c1-c1cc2cc(CN(C)C)oc2c(NCc2cccnc2)n1,"inconclusive: 0.501 µM [inhibitor, full curve, poor fit]",–
COc1ccc2nc(CO[C@H]3CN(C4CCN(C(C)=O)CC4)C[C@H]3F)[nH]c2c1,"inconclusive: 3.55 µM [inhibitor, partial curve, poor fit]",–
Cc1ccc(Cn2c(C3CCN(C(=O)c4ccc(C)cc4)CC3)n[nH]c2=O)cc1,inactive,–
CCOC(=O)c1c(NC(=O)CSc2cn(CCNC(=O)c3ccc(OC)cc3)c3ccccc23)sc2c1CCCC2,"inconclusive: 5.62 µM [inhibitor, partial curve, poor fit]",–
COc1ccc(C2c3c(n(C)c4ccccc34)C(=O)N2CC(=O)Nc2cccc(Cl)c2)cc1 (stereo not drawn),"inconclusive: 10 µM [inhibitor, single point]",–
CN1CCN(Cc2ccc(Nc3ncc(-c4cccnc4)c4c3OCC4)cc2)CC1,active: 10 µM,–
COCCN1CC(CO)C2(CCN(C(=O)Cc3cccc(F)c3)CC2)C1 (stereo not drawn),inactive,–
Cc1ccc2c(c1)N(C(=O)Nc1cccc3c1CCCC3)CCO2,inactive,–
O=C(NCCc1ccccc1)c1ccc(Nc2nc3ccccc3n3nnnc23)cc1,"inconclusive: 15.8 µM [inhibitor, single point]",–
CN1C(=O)Cc2cc(C(=O)NC3CCCCC3)ccc21,"inconclusive: 10 µM [inhibitor, single point]",–
CSc1ccccc1OCc1cc(C(=O)NCCN2CCCCC2CO)no1 (stereo not drawn),active: 11.2 µM,–

# Source: PubChem BioAssay AID1347417 (National Center for Advancing Translational Sciences (NCATS), 2020)
